# Test results as given in PubChem BioAssay AID1347165 (National Center for Advancing Translational Sciences (NCATS), 2019).
# Out of some 220,000 compounds screened, about 5,700 (2.6%) were called active. Inconclusive results, whose numbers are uncertain, are shown with a selection of clear calls. Calls follow the shape of the dose curve; as a rule, active = well fitted inhibition curve with a large enough effect; inconclusive = small, poorly fitted or top-dose-only effect; inactive = no such curve, though single readings can be large or run the other way. Where the call is inconclusive, the potency comes from a doubtful curve fit.
# Molecular target: Lysine-specific demethylase 5B (Homo sapiens) (UniProt Q9UGL1)
# Assay: Primary screen for KDM5B Histone Demethylases FDH-coupled qHTS; also: nearly all actives have a fitted effect of over 70% in size; as to activity change, negative = inhibition: 0% is about no effect
# Details: FDH-coupled NADH fluorescence (FDH is formaldehyde dehydrogenase); activity change, negative = inhibition: at 57.7 µM (top of the series) unless noted
# Method in brief: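 KDM5BΔAP (200 nM final) in 50 mM HEPES pH 7.5, 0.01% Tween-20 was preincubated 10 min at RT with compound over a concentration range. Substrate mix (H3K4me3 12.5 µM, α-KG 25 µM, Fe²⁺, ascorbate, NAD⁺, FDH) was added, and NADH fluorescence change over 30 min gave dose-response curves.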
# Potency is read from the fitted curve at half-maximal effect; tags tell the direction and shape of the fitted curve.
# Chain of UniProt Q9UGL1 (Q9UGL1 whole entry, looked up): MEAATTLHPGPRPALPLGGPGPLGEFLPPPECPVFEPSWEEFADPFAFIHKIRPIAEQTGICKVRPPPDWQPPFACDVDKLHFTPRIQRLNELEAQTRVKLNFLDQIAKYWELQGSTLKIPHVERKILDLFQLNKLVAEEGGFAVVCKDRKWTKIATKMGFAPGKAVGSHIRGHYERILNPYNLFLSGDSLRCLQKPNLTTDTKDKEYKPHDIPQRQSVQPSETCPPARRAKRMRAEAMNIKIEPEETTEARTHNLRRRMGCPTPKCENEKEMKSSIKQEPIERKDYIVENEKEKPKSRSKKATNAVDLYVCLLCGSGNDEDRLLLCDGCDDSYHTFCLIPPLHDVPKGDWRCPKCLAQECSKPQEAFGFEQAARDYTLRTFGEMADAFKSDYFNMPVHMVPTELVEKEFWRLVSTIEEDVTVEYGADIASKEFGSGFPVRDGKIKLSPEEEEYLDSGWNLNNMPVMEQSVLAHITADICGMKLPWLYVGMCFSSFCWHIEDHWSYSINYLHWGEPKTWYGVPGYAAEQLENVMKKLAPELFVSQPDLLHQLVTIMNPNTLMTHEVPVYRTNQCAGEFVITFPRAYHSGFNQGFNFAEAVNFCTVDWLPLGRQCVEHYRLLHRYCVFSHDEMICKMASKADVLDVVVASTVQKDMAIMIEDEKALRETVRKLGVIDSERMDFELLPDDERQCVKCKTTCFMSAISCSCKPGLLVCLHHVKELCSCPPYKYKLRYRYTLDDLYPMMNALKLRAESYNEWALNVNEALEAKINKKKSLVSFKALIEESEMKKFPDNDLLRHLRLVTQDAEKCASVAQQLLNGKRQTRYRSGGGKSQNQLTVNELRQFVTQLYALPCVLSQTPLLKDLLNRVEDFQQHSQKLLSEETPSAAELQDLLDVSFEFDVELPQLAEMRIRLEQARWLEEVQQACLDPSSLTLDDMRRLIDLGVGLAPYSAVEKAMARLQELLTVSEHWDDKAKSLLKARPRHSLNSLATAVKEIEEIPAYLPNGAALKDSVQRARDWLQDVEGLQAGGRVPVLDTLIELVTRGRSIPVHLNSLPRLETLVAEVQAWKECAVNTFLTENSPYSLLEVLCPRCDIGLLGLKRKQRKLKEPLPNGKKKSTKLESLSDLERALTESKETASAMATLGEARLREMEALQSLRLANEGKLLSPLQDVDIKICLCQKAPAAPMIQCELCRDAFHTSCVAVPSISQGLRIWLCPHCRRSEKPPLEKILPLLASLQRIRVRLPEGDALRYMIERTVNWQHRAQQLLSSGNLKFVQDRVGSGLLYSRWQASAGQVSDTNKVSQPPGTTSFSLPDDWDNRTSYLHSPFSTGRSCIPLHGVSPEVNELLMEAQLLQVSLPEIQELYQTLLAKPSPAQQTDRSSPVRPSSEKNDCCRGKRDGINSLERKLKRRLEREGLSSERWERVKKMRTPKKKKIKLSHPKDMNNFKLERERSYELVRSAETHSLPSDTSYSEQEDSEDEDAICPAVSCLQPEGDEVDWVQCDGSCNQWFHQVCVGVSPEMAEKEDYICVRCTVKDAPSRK
SMILES,"activity change, negative = inhibition",Potency
COCCN1CCC(N2CCN(C(=O)c3ccc(F)cc3)CC2)C1=O (stereo not drawn),inactive: -11.1%,–
Cc1cc(=O)n(CC(=O)Nc2ccccc2F)c(N2CCc3ccccc3C2)n1,–,"inconclusive: 14.1 µM [inhibitor, single point]"
O=C(NCCc1ccc(F)cc1)C1CCCN(c2nc3ncccc3o2)C1 (stereo not drawn),–,"inconclusive: 11.2 µM [inhibitor, partial curve]"
CC(=O)c1cc2c(cc1NC(=O)c1cccc(F)c1)OCCO2,inactive: 9.79%,–
CCOc1ccc(CNC(=O)c2cnc3sc(N(CC)CC)nn3c2=O)cc1OC,–,"inconclusive: 31.6 µM [inhibitor, partial curve, poor fit]"
CCc1ccc(S(=O)(=O)c2nnn3c2nc(NCc2ccc(F)cc2)c2ccccc23)cc1,–,"inconclusive: 35.5 µM [inhibitor, partial curve, poor fit]"
CCCCCCCCS(=O)(=O)CCSCCO,inactive: -5.47%,–
COc1cc(C(=O)OCc2ccc(C#N)cc2)cc(OC)c1OC,inactive: 12.3%,–
CCN1c2cc(C(=O)Nc3ccc(C)cc3Cl)ccc2C(=O)N2CCCCCC21 (stereo not drawn),–,"inconclusive: 25.1 µM [inhibitor, partial curve, poor fit]"
Cc1nn(C)c(C)c1-c1cc(C(=O)O)c2ccccc2n1,–,"inconclusive: 28.2 µM [inhibitor, partial curve, poor fit]"
CC1CCCCN1CCNC(=O)c1cc(=O)[nH]c2ccccc12 (stereo not drawn),–,"inconclusive: 39.8 µM [inhibitor, single point]"
Cc1ccc2c(CN3CCc4cc(S(N)(=O)=O)ccc43)cc(=O)oc2c1C,inactive: -4.39%,–
CCOC(=O)c1c(C)[nH]c(CCC(=O)NCCCN2CCN(c3cc(C)ccc3C)CC2)c1C,–,"inconclusive: 5.01 µM [inhibitor, partial curve, poor fit]"
CSc1cccc(NC(=O)N(C)CCc2noc(-c3ccc(C(=O)N4CCCCC4)cc3)n2)c1,inactive: 11.4%,–
CS(=O)(=O)c1cccc(C(=O)N2CCN(CCc3ccccc3)CC2)c1,inactive: -7.06%,–
COc1ccc(CC(=O)NC2CCCN(c3cc(-c4ccc(Cl)cc4)[nH]n3)C2)cc1OC (stereo not drawn),inactive: -10.4%,–
Cc1cccc(C(=O)Nc2sc3c(c2C(=O)N2CCN(C)CC2)CCC3)c1,inactive: 9.95%,–
COCCN1C(=O)c2cccn2CC1CNC(=O)NCc1ccc(OC)cc1 (stereo not drawn),inactive: -1.79%,–
COc1cc(/C=C(\C#N)c2nc3ccccc3[nH]2)ccc1OCc1cccc(C(F)(F)F)c1,–,"inconclusive: 22.4 µM [inhibitor, partial curve, poor fit]"
CN(CCc1ccccn1)[C@@H]1[C@H](O)[C@H](CO)O[C@@H]1CNC1CCOCC1,–,"inconclusive: 20 µM [inhibitor, partial curve, poor fit]"
CCOc1ccc(CNC(=O)c2ncoc2-c2cccs2)cc1,–,"inconclusive: 35.5 µM [inhibitor, partial curve, poor fit]"
CCOC(=O)c1ccc(NC(=O)c2c(-c3ccc(OC)cc3)oc3ccc(OC)cc23)cc1,–,"inconclusive: 1.78 µM [inhibitor, full curve, poor fit]"

SMILES,"activity change, negative = inhibition",Potency
Brc1ccc(C2=Nn3c(Cn4nnc5ccccc54)nnc3SC2)cc1,–,"inconclusive: 20 µM [inhibitor, partial curve, poor fit]"
CN(c1ccccc1)c1cc(=O)c2ccnc(NCCc3ccccn3)c2o1,–,"inconclusive: 25.1 µM [inhibitor, partial curve, poor fit]"
COc1ccc2c(c1)c(C(=O)CN1CCc3ccccc3C1)c(C)n2C,–,"inconclusive: 39.8 µM [inhibitor, single point]"
Cc1cccc2nc(-c3c(-c4ccc(Br)cc4)n(C)c(=O)n(C)c3=O)cn12,–,"inconclusive: 1.78 µM [inhibitor, full curve, poor fit]"
COc1ccc(C(=O)NCC2(COc3ccc(C(F)(F)F)cn3)C[C@@H](O)[C@@H](O)C2)cc1 (stereo partly drawn),–,"inconclusive: 7.08 µM [inhibitor, single point]"
CN(Cc1ccc(C(N)=O)cc1)Cc1ccsc1,inactive: 6.04%,–
N#CCc1ccc(OCC(O)Cn2cnc3ccc(Cl)cc3c2=O)cc1 (stereo not drawn),inactive: 4.38%,–
Cc1c(Cl)cccc1NC(=O)Cn1cccc1-c1nc(-c2ccc(F)cc2)no1,–,"inconclusive: 39.8 µM [inhibitor, partial curve, poor fit]"
CNc1c(NC(=O)c2ccc(Br)o2)c(=O)oc2ccccc12,inactive: 5.12%,–
Cc1cc(C(=O)NC2CCCC2)c2c(C3CCNC3)noc2n1 (stereo not drawn),–,"inconclusive: 56.2 µM [inhibitor, partial curve, poor fit]"
COc1ccccc1-c1ccc2ncn(Cc3ccccc3)c(=O)c2n1,–,"inconclusive: 56.2 µM [inhibitor, single point]"
CN(C(=O)Cn1cc(S(=O)(=O)Cc2ccccc2Cl)c2ccccc21)c1ccccc1,–,"inconclusive: 35.5 µM [inhibitor, single point]"
COc1ccc(-c2nn3c(-c4ccccc4C)nnc3c3ccccc23)cc1,–,"inconclusive: 35.5 µM [inhibitor, partial curve, poor fit]"
N#C/C(=C/c1ccc(OC(F)F)cc1)C(=O)c1c[nH]c2cc(F)ccc12,inactive: -28.1%,–
Cc1c(-c2cccc3ccccc23)c(=O)oc2ccc(Br)cc12,–,"inconclusive: 25.1 µM [inhibitor, single point]"
COc1ccc(Cl)cc1-c1ccc2c(c1)C(=O)N1CCN(C(=O)C3CCCCC3)C[C@@H]1C(=O)N2,–,active: 10 µM
O=C1Cc2ccccc2C(=O)N1c1ccc(F)cc1Cl,–,"inconclusive: 28.2 µM [inhibitor, partial curve, poor fit]"
COc1ccc(NC(=O)CSc2nnc(NC(=O)Nc3ccccc3)s2)cc1OC,inactive: 16.4%,–
Cc1ccccc1CC(C)Nc1ccc(C#N)cn1 (stereo not drawn),–,"inconclusive: 39.8 µM [inhibitor, single point]"
O=C(CSc1cnc2ccccc2n1)OCc1cccc2ccccc12,inactive: 5.74%,–
CCC1=C(C(=O)OC)C(c2ccccc2OC)N2C(CC(=O)NCC3CCCO3)=CSC2=N1 (stereo not drawn),–,"inconclusive: 28.2 µM [inhibitor, partial curve, poor fit]"
